Test results reported in publication PMC11318003 (ACS Medicinal Chemistry Letters, 2024).
≈ marks a conversion by molar mass, not a printed value. Structures can show the parent of a compound that is named as a salt.

Tests used:
[1] = PAMPA, pH 7.4
in vitro [2] = conditions: PAMPA, pH 7.4
physchem [3] = conditions: buffer
physchem [4] = conditions: pH 7.4, aqueous buffer, kinetic from dmso stock
galectin-7 = galectin-7 (Homo sapiens, UniProt P47929)
in vitro [5] = conditions: CD1, mouse, microsomes; for half-life: pH 7.4; for microsomal CLint at 1 µM: mouse liver microsomes, 45 minutes
[6] = human plasma, 1 μM, 37 °C; for Plasma stability, remaining percentage at 0 h: 0 h (reference time point)
physchem [7] = conditions: pH 7.4
in vitro [8] = conditions: human, plasma
in vitro [9] = conditions: human, microsomes; for half-life: pH 7.4; for microsomal CLint at 1 µM: human liver microsomes, 45 minutes
galectin-3 = galectin-3 (Homo sapiens, UniProt P17931)
galectin-3, sequence (P17931 whole entry): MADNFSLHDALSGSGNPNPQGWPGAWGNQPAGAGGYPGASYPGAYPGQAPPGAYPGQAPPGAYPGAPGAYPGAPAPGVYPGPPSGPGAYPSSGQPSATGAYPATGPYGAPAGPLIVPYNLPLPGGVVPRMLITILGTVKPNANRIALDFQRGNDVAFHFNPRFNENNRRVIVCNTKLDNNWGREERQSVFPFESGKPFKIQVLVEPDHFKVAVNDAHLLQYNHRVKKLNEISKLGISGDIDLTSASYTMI

galectin-4C = galectin-4C (Homo sapiens, UniProt P56470); assay: biochemical
galectin-4C, sequence (P56470 194-323): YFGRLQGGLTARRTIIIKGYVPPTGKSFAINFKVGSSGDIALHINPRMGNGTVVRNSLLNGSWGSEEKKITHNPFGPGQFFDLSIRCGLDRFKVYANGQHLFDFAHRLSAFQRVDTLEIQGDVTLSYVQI

galectin-4N = galectin-4N (Homo sapiens, UniProt P56470)
galectin-4N, sequence (P56470 19-150): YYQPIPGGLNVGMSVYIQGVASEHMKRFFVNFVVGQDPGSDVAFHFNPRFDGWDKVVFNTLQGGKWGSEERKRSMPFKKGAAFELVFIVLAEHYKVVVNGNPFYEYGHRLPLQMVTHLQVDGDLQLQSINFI

galectin-1 = galectin-1 (Homo sapiens, UniProt P09382)
galectin-1, sequence (P09382 whole entry): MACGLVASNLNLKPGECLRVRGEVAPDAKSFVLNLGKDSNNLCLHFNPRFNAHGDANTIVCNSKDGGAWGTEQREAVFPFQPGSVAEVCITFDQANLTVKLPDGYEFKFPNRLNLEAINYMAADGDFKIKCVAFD

galectin-9C = galectin-9C (Homo sapiens, UniProt O00182)
galectin-9C, sequence (O00182 227-355): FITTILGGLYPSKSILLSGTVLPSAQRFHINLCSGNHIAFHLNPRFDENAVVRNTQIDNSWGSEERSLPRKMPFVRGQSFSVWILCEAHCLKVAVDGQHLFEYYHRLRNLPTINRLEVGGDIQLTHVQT

galectin-9N = galectin-9N (Homo sapiens, UniProt O00182)
galectin-9N, sequence (O00182 17-148): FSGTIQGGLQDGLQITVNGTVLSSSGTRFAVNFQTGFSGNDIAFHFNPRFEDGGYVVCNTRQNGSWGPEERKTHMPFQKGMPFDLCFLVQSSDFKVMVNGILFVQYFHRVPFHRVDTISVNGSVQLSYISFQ

Caco-2 = conditions: cited from earlier work
[10] = cited from earlier work
[11] = pH 7.4, CLint (mouse), first incubation
[12] = pH 7.4, CLint (mouse), second incubation
[13] = pH 7.4, CLint (human), first incubation
[14] = pH 7.4, CLint (human), second incubation

galectin-7, sequence (P47929 whole entry): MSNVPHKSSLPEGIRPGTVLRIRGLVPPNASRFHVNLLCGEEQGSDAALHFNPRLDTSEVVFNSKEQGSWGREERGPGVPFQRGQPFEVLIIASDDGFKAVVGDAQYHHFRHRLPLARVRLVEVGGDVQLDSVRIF

Row | Structure (SMILES) | remaining at 120 h (physchem [3]; pH 4) | remaining at 120 h (physchem [3]; pH 9.5) | Kd galectin 7 (galectin-7) | half-life (in vitro [5]) | microsomal CLint (in vitro [5]; [11]) | microsomal CLint (in vitro [5]; [12]) | microsomal CLint (in vitro [5]; pH 7.4, CLint Average (mouse)) | logD (physchem [7]) | half-life (in vitro [8]) | half-life (in vitro [9]) | microsomal CLint (in vitro [9]; [14]) | microsomal CLint (in vitro [9]; pH 7.4, CLint Average (human)) | microsomal CLint (in vitro [9]; [13]) | further results
1 | N=C(N)NC(=O)c1nc(Cl)c(N)nc1N [Amiloride HCl] | – | – | – | – | – | – | – | – | – | – | – | – | – | Permeability [1]: 0.0 ± 0.10 10-6 cm/s
2 | Cc1cc(=O)n(-c2ccccc2)n1C [Antipyrine, reference compound] | – | – | – | – | – | – | – | – | – | – | – | – | – | Papp (in vitro [2]): 8.9 ± 0.85 ×10⁻⁶ cm/s
3 | O=c1c2ccccc2cnn1CO[C@@H]1C=CO[C@H](CO)[C@@H]1O [Compound 1] | 96% | > 99% | N.B. ^b | > 2.33 h | < 10 µL/min/mg | < 10 µL/min/mg | < 10 µL/min/mg | 1 | > 16 h | > 2.33 h | < 10 µL/min/mg | < 10 µL/min/mg | – | solubility (physchem [4]): > 95 µM; Plasma stability, remaining percentage at 2 h ([6]; relative to 0 h): 86%; Plasma stability, remaining percentage at 4 h ([6]; relative to 0 h): 89%; microsomal CLint at 1 µM (in vitro [9]; [13]): < 10 µL/min/mg
4 | O=c1c2ccccc2c(-c2ccccc2)nn1CO[C@@H]1C=CO[C@H](CO)[C@@H]1O [Compound 2] | > 99% | > 99% | N.B. ^b | 0.283 h | – | – | 85 µL/min/mg | 1.7 | > 16 h | > 2.33 h | – | < 10 µL/min/mg | – | microsomal CLint at 1 µM (in vitro [5]; [11]): 78 µL/min/mg; microsomal CLint at 1 µM (in vitro [5]; [12]): 91 µL/min/mg; Plasma stability, remaining percentage at 0 h [6]: 100%; Kd galectin 3 (galectin-3): N.B. ^b; microsomal CLint at 1 µM (in vitro [9]; [13]): < 10 µL/min/mg; microsomal CLint at 1 µM (in vitro [9]; [14]): < 10 µL/min/mg
5 | O=c1c2ccccc2c(-c2ccc(F)cc2)nn1CO[C@@H]1C=CO[C@H](CO)[C@@H]1O [Compound 6] | 97% | – | N.B. ^b | 0.45 h | 50 µL/min/mg | 51 µL/min/mg | 51 µL/min/mg | 1.7 | – | > 2.33 h | < 10 µL/min/mg | – | < 10 µL/min/mg | Kd (galectin-4C): 1.5 ± 0.17 mM; remaining at 120 h, 100 µM (physchem [3]; pH 9.5): > 99%; solubility at 24 h (physchem [4]): 94 µM (≈ 37.4 µg/mL); Papp (in vitro [2]): 6.7 ± 1.55 ×10⁻⁶ cm/s; Plasma stability, remaining percentage at 2 h ([6]; relative to 0 h): 81%; Plasma stability, remaining percentage at 8 h ([6]; relative to 0 h): 86%; Plasma stability, remaining percentage at […] ([6]; relative to 0 h): 100%; half-life at 1 µM (in vitro [8]): > 16 h; Kd galectin 4N (galectin-4N): N.B. ^b; Kd galectin 1 (galectin-1): N.B. ^b; microsomal CLint at 1 µM (in vitro [9]; pH 7.4, CLint Average (human)): < 10 µL/min/mg
6 | O=c1c2ccccc2c(-c2ccc(Cl)cc2)nn1CO[C@@H]1C=CO[C@H](CO)[C@@H]1O [Compound 7] | – | 99% | N.B. ^b | 0.383 h | 56 µL/min/mg | 65 µL/min/mg | 61 µL/min/mg | 2.3 | > 16 h | – | – | 10 µL/min/mg | 12 µL/min/mg | Kd (galectin-4C): 1.6 ± 0.2 mM; remaining at 120 h, 100 µM (physchem [3]; pH 4): 97%; solubility (physchem [4]): 63 µM (≈ 26.1 µg/mL); Plasma stability, remaining percentage at 2 h ([6]; relative to 0 h): 95%; Plasma stability, remaining percentage at 4 h ([6]; relative to 0 h): 96%; Kd galectin 4N (galectin-4N): N.B. ^b; Kd galectin 9C (galectin-9C): N.B. ^b; Kd galectin 3 (galectin-3): N.B. ^b; Kd galectin 1 (galectin-1): N.B. ^b; Kd galectin 9N (galectin-9N): N.B. ^b; microsomal CLint at 1 µM (in vitro [9]; [14]): < 10 µL/min/mg
7 | O=c1c2ccccc2c(-c2ccc(Cl)c(Cl)c2)nn1CO[C@@H]1C=CO[C@H](CO)[C@@H]1O [Compound 8] | – | – | – | – | – | – | – | – | – | – | – | – | – | Kd galectin 9C (galectin-9C): N.B. ^b; Kd galectin 3 (galectin-3): N.B. ^b; Kd galectin 1 (galectin-1): N.B. ^b; Kd galectin 9N (galectin-9N): N.B. ^b
8 | Cc1ccc(-c2nn(CO[C@@H]3C=CO[C@H](CO)[C@@H]3O)c(=O)c3ccccc23)cc1 [Compound 9] | – | > 99% | N.B. ^b | 0.167 h | – | – | 137 µL/min/mg | 2.5 | 7.6 h | > 2.33 h | < 10 µL/min/mg | – | – | remaining at 120 h, 100 µM (physchem [3]; pH 4): 96%; solubility at 24 h (physchem [4]): > 95 µM; microsomal CLint at 1 µM (in vitro [5]; [11]): 136 µL/min/mg; microsomal CLint at 1 µM (in vitro [5]; [12]): 138 µL/min/mg; Plasma stability, remaining percentage at 0 h [6]: 100%; Plasma stability, remaining percentage at 1 h ([6]; relative to 0 h): 88%; Kd galectin 9C (galectin-9C): N.B. ^b; Kd galectin 9N (galectin-9N): N.B. ^b; microsomal CLint at 1 µM (in vitro [9]; [13]): < 10 µL/min/mg; microsomal CLint at 1 µM (in vitro [9]; pH 7.4, CLint Average (human)): < 10 µL/min/mg
9 | O=c1c2ccccc2c(-c2ccc(Br)cc2)nn1CO[C@@H]1C=CO[C@H](CO)[C@@H]1O [Compound 10] | 91% | 95% | – | 0.6 h | 38 µL/min/mg | 39 µL/min/mg | 39 µL/min/mg | 2.2 | > 16 h | 2.1 h | 11 µL/min/mg | 11 µL/min/mg | 11 µL/min/mg | Kd (galectin-4C): 1.4 ± 0.13 mM; solubility (physchem [4]): 42 µM (≈ 19.3 µg/mL); Papp (in vitro [2]): 7.4 ± 1.5 ×10⁻⁶ cm/s; Plasma stability, remaining percentage at 4 h ([6]; relative to 0 h): 84%
10 | C[C@@H]1C[C@H]2[C@@H]3CCC4=CC(=O)C=C[C@]4(C)[C@@]3(F)[C@@H](O)C[C@]2(C)[C@@]1(O)C(=O)CO [Dexamethasone] | – | – | – | – | – | – | – | – | – | – | – | – | – | Caco-2 (Caco-2): 13.4 ± 1.3 ×10⁻⁶ cm/s
11 | COc1ccc2c(c1)[C@]13CCCC[C@@H]1[C@H](C2)N(C)CC3 [Dextromethorphan, reference compound] | – | – | – | – | – | – | – | – | – | 1.78 h | – | 13 µL/min/mg | 13 µL/min/mg | Reference clearance values (human) [10]: 25 ± 10 µL/min/mg
12 | CC(C)(C)NCC(O)COc1cccc2c1CC(O)C(O)C2 (centres unmarked) [Nadolol] | – | – | – | – | – | – | – | – | – | – | – | – | – | Caco-2 (Caco-2): 1.7 ± 0.4 ×10⁻⁶ cm/s
